# According to the supplement of paper PMC11417369:
# ± gives the standard deviation of the averaged measurements. The list shows a part of the results.
# Tested on: PfAP2-LT AP2 domain (GST-tagged)
# Experiment: gcPBM binding intensity (ln(normalized median fluorescence intensity)); higher = stronger DNA binding
# In short: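 An Agilent 4 × 180k array of primer-extended double-stranded 36-bp intergenic genomic probes, with negative controls, was incubated for 1 h with GST-tagged P. falciparum DNA-binding domains expressed in E. coli. Alexa488 anti-GST antibody detected bound protein, scanned at 488 nm. Binding intensity is the highest Masliner-normalised natural-log median intensity across replicate spots of either probe orientation.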
row,Sequence,gcPBM binding intensity (ln)
1,AATACCTACCAAACATGTACATACGCTTCTCAAATA [XGTACX_site5535],8.96 ± 0.39
2,TATATAAACACGTACACACACATATCTGTATTTATA [CACACA_site5858],9.44 ± 0.3
3,GTGAGCTCAGACTACACACACAAAGAAAAAAATAAA [CACACA_site1553],9.28 ± 0.66
4,ATATTTTTAGGTGATTATTATTCGGAGAAGCGAATT [CACACA_negctrl_site1097],8.47 ± 0.4
5,AACAAATACAGACACACACACACACCCAAAAAAAAA [CACACA_site515],10.2 ± 0.26
6,ATACAACAAAAATAAGCACACACAAATATACATACA [CACACA_site9201],9.7 ± 0.4
7,ATAAAAATTTAAAAAGAACACACGAAAGAAGGACTT [CACACA_site3929],9.01 ± 0.53
8,AATATTTTCTTGTACGCATGCACATCCAAATTATAT [TGCATGCA_site873],9.1 ± 0.38
9,TGACCTGTTCAGGTAACACACATATAAACACATACA [CACACA_site4186],9.2 ± 0.41
10,ATATATTAATAATTTTGTACGCATTTCCTTTTTATT [XGTACX_site1638],8.93 ± 0.46
11,AAAAAAAAAAAAAAATGTACAAATAAAGAAATATGA [XGTACX_site4371],8.76 ± 0.55
12,GAAAATATTTCCGTATGTACTTATTTTAGTCTACTA [XGTACX_site471],8.81 ± 0.42
13,ATACCCACTTAAAATACACACACACCGAAAAAAAAA [CACACA_site8867],9.65 ± 0.28
14,AGGTTCTTTTTAAATGGTACACATAATTTGAAGATA [XGTACX_site400],8.49 ± 0.54
15,GTGTATAGAATGGTTTCTTTTAAGGTTTTTATTTTT [CACACA_negctrl_site564],8.72 ± 0.42
16,TCTTAAAAGGGGAATGGAATGGAGAAAATGAAATAA [GTGCAC_negctrl_site30],8.46 ± 0.58
17,ATGAATACAAAATTATACAAAATTATCAAAAGTATG [CACACA_negctrl_site1453],8.76 ± 0.48
18,CTTTTTATTTAGAACACACACAAAAAAAAAAAAAAA [CACACA_site1761],8.58 ± 0.4
19,TGCAGTCTGGAGAAACGTACATAGTATCTGGTAGCT [XGTACX_site4937],8.94 ± 0.57
20,ATACATAAATATATATGTACATATATATATATATAT [XGTACX_site1055],9.54 ± 0.12
21,AAAATATATTTAAATTGTACACGTTACCATAACAAT [XGTACX_site2598],8.71 ± 0.39
22,TATGTTTTTACATATTGTACATATTCTTGTAATACG [XGTACX_site1179],8.88 ± 0.45

row,Sequence,gcPBM binding intensity (ln)
1,ATTATAATGTTAATGTGTACATATGATTCCTTAATT [XGTACX_site181],8.9 ± 0.38
2,TATGTGTGCAAAAACTGTACACATTAAAGGTATATA [XGTACX_site7627],9.38 ± 0.33
3,ATAAATAAATAAGTACATATATATATGTATATATAT [TGCATGCA_negctrl_site223],9.05 ± 0.42
4,ATGACATGTTCTAAATGTACATTTTTTAACCCTTTT [XGTACX_site1858],8.81 ± 0.56
5,TATGGTTACATTATATGTACTAAACGAATATTTTTA [XGTACX_site5694],8.47 ± 0.48
6,TATACAAGTATATAGGTGCATATATAAGTATATATT [GTGCAC_site9994],8.86 ± 0.45
7,TACTTTCAAAAGATCACACATATATATATATATATA [CACACA_site5630],9.8 ± 0.042
8,TAATAACATACAGACACACACGTAAAAGCACGTGTA [CACACA_site4299],9.26 ± 0.42
9,TAATATATATATATATGTACATATATATTATGTATA [XGTACX_site4690],8.88 ± 0.23
10,AGATTATTTAGAATGTGTACATATTACACATACATG [XGTACX_site8634],8.94 ± 0.43
11,ACTACATTATGTCATACATGCATACATACGTGGTTT [TGCATGCA_site732],9.1 ± 0.45
12,CATTAAAAGTATAATTGTACTTTTCATTTATATATT [XGTACX_site7536],8.63 ± 0.53
13,AGTAATTTAAGGAATACACACAAGAAAAAAATAAGA [CACACA_site6177],9.13 ± 0.61
14,TTTTTAACCAAACATCAAAACATATTTTTTTGTTAT [CACACA_negctrl_site385],8.38 ± 0.47
15,GTATACCTTTTGACATGTACGTATGTATATTTGGGT [XGTACX_site720],9.08 ± 0.41
16,CATACATACAAACACACACACACACCCATATATATA [CACACA_site2918],10.1 ± 0.31
17,AAAAAAAAAAAACACACACACACATAAATATATATA [CACACA_site149],10.1 ± 0.18
18,TGTAAATTTGGCATCACACATAAATAAACATATAAA [CACACA_site4497],8.77 ± 0.45
19,TATTAACATATATAAAGTACATTAAACAACATTGTA [XGTACX_site7667],8.59 ± 0.41
20,TTTTCACTTTTAAAAACATGCATACTTTATAAAATA [TGCATGCA_site967],8.34 ± 0.45
21,TATATATAAAAAAGCACACATACATACATACATAAT [CACACA_site890],9.23 ± 0.32
22,TACACAAGCGGACACACACACATATATATATATATA [CACACA_site4832],10.415 ± 0.0071

row,Sequence,gcPBM binding intensity (ln)
1,AACATTCTAAAACACACACACACATATATATATATA [CACACA_site1052],9.98 ± 0.11
2,TGGTAAAGGAGCAAGATGATAAATCTCCATAACTTT [CACACA_negctrl_site492],8.65 ± 0.49
3,ATGTCTATAATAAGAACACACATATATTTAATTTAA [CACACA_site7394],8.71 ± 0.46
4,CTATATTCGTTTAATAGTACATATATAACTAGACAA [XGTACX_site5770],8.54 ± 0.42
5,GTTGGTACCTTACTTTTACACACTTTTTTTTTTTTT [CACACA_site8441],9.14 ± 0.49
6,TATATATATATGTATACACACATACAAATATGTAAA [CACACA_site9238],9.1 ± 0.12
7,AAAAGAAATATTTATACACACACACTAACATATATA [CACACA_site8580],9.65 ± 0.35
8,GTGAAAAAAAACATATGTACTTATACACTAATCTAT [XGTACX_site7600],8.87 ± 0.42
9,TTATCATTTTAATGGTGTACTCAATAAAAACTTTAA [XGTACX_site4595],8.16 ± 0.31
10,TTATATATAATTACATGTACGTAGTATTATTTAAAT [XGTACX_site3418],8.62 ± 0.36
11,TACACAAGAAAATTCACACACACACCCATATATATA [CACACA_site3879],10.12 ± 0.092
12,ATGTAATTATAAGATTAATATACATAATTATATGTA [GTGCAC_negctrl_site458],8.61 ± 0.54
13,AACATACATGTATATAGTACATATTACATCTGATAC [XGTACX_site3649],9.06 ± 0.39
14,CATAGATACATACACGCACACACATATATATATATA [CACACA_site13],10.2 ± 0.17
15,GTATTACCTTATTATTGTACTTTCATGATATATATG [XGTACX_site5382],9.02 ± 0.47
16,TTAATGAATGGACACACACACATATATATATATATT [CACACA_site5294],9.805 ± 0.021
17,ATAAAAAAAATTTGCACACCTTCAAAGTAATATATA [CACACA_site1584],8.78 ± 0.43
18,TAATTTTTTTTTTTTTTTTTTGTACTTCATTTTTAT [CACACA_negctrl_site1395],8.66 ± 0.62
19,AAAAAAAAAAAAAGTACATGCAATATGGATCTTAAA [TGCATGCA_site367],8.76 ± 0.45
20,CATATAAAAGGACACACACACACATATAAATATGTA [CACACA_site6568],9.88 ± 0.3
21,TGCTATTTTATTTATTCTTTTATAAAAGTATAATAT [XGTACX_negctrl_site358],8.56 ± 0.46
22,ATTTTTATAGAATGAACACACATATTATAGCATTTA [CACACA_site6842],8.76 ± 0.35

row,Sequence,gcPBM binding intensity (ln)
1,TTTTATTGTTGTTATACACACCATATAAAATATTTC [CACACA_site4983],8.79 ± 0.44
2,ATTCACTAAAAAATTGCATGCAATAAATTTTTTTTT [TGCATGCA_site962],8.65 ± 0.35
3,AATTGATTTATATATTGTACATATAAATTTATGTAT [XGTACX_site7785],8.89 ± 0.44
4,TTGCATATTTCTAATTGTACATTATTTTATTTTATA [XGTACX_site8451],8.79 ± 0.45
5,GGGAAAATAAATAAAGTGCAGATATTAAAAGTTGTA,8.86 ± 0.5
6,AATAAAAAATATATGAGTACTAAATTGTTTTCTTAA [XGTACX_site8573],8.5 ± 0.65
7,CTCAACGATAGAGAAACATGCAAGTATAAGCAACTA [TGCATGCA_site771],8.96 ± 0.4
8,ATATTTATCTTTTTATGTACATATGCCCCTTTTCTG [XGTACX_site673],9.04 ± 0.46
9,ATTTTACATATTTGCACACATATATTTAAATACATA [CACACA_site4627],9.16 ± 0.4
10,AAGAAAATTAAATTAACACACATAAATATATATATA [CACACA_site1664],8.93 ± 0.38
11,GAGTTATTTCTTATTTAAGCATTCTACATATATATA [CACACA_negctrl_site239],8.84 ± 0.46
12,GTCCTTATGGATGATAAATTATTTTAAATATTCTAT [XGTACX_negctrl_site200],8.32 ± 0.45
13,TCTTGGTTATTAAAAAAAAAAAAATATATTTTTCCT [TGCATGCA_negctrl_site445],8.14 ± 0.47
14,TCATATGTTTCATGTTGTACATTGAAAGTTTGGCTA [XGTACX_site3202],8.64 ± 0.37
15,GTTCTAATATATTGCACACGTAAAAATATAGGTAAT [CACACA_site886],9.08 ± 0.35
16,AAATATGTACATATTATATATATATAATATATATTG [TGCATGCA_negctrl_site438],8.78 ± 0.4
17,TGTTAATTAAAGGACTGTACACTAATAATTCTATAA [XGTACX_site5195],8.59 ± 0.38
18,TAATTGTACGCCAATACACACAGAATTAGAATGTAG [CACACA_site102],9.11 ± 0.32
19,ATAAATAAATGGTGTTGTACTCTATTATATATATAT [XGTACX_site7835],8.93 ± 0.32
20,AATAAATATAGATTCACACACAAACATATATAAATA [CACACA_site7814],9.27 ± 0.37
21,AAAAAAAAAATATATATATATATATATATATAATTT [GTGCAC_negctrl_site32],9.15 ± 0.41
22,AAGAAAAAAATTTATACAAGAATTTTTTATTATTAA [TGCATGCA_negctrl_site587],8.14 ± 0.44
